Measured values from PMC2843631.
Positions count from the first letter of the chain named. Results are given in words; binding and its absence hold for the method and conditions named. In cells and extracts the contact can be indirect. Some results given as binding are weak or reduced against the parent protein; the word gives no strength. Tags and fused reporters may be left off the sequences shown. Each block holds one binder with its values, some of them ahead of it.

Tests used:
[1] = target: glutathione-S-transferase (GST)-fused Hsp60 (human) (UniProt P10809); experiment: pull-down; 1.0 µg GST-Hsp60 pre-bound to glutathione-Sepharose beads incubated with lysates of Sf9 insect cells expressing (His)6-tagged IKKs, 4°C, 2 hrs; washed with lysis buffer A; immunoblot; only the target purified
[2] = target: T1, IKKα, Flag-tagged (human) (UniProt O15111); experiment: co-IP; 293T cells co-transfected with Hsp60c constructs (HA tag) and each of the IKK subunit proteins (Flag tag) for 24 hrs
T1 sequence: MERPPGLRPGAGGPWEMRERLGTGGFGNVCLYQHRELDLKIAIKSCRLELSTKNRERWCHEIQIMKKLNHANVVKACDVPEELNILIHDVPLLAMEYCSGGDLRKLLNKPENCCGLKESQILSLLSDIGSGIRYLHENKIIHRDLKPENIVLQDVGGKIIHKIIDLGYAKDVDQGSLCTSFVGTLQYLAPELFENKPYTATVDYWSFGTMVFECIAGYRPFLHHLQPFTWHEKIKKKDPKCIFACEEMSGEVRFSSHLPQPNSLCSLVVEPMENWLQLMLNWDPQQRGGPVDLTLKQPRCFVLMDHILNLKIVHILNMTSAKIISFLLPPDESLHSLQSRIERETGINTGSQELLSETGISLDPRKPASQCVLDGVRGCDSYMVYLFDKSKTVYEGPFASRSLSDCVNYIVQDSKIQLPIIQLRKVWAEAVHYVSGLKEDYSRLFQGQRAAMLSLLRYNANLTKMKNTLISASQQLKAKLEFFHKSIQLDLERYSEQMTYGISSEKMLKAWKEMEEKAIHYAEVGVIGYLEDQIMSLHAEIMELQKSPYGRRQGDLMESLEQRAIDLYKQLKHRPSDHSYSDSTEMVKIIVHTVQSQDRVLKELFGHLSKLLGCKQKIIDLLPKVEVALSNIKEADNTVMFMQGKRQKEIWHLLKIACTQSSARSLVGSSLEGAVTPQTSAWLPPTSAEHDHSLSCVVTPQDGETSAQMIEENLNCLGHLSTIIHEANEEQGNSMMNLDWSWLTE

[3] = target: T2, IKKβ, Flag-tagged (human) (UniProt O14920); experiment: as above
T2 sequence: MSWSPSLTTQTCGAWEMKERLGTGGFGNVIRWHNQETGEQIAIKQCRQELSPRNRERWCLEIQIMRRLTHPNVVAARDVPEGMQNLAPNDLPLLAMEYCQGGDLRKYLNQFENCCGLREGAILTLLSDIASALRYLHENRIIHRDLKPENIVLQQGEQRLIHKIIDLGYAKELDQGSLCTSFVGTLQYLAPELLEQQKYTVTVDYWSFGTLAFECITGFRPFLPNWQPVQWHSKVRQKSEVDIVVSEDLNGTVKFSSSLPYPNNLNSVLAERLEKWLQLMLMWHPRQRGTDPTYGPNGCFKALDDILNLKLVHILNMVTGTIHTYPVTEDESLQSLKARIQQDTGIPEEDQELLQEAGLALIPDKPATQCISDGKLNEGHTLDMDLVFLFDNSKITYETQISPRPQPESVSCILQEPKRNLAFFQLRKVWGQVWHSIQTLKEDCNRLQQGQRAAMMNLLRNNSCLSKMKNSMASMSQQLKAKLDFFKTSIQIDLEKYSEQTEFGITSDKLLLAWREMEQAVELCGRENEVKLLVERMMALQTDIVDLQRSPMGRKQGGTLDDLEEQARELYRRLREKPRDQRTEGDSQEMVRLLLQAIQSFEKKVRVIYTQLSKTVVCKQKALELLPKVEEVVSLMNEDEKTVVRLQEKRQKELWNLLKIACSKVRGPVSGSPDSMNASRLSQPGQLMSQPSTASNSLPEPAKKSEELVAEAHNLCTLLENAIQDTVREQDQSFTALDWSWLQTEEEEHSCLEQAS

[4] = target: IKKγ, Flag-tagged (human), Q9Y6K9; experiment: as above; conditions: remark: other sources report otherwise

- binding [1]: binds
B1: (His)6-tagged IKKβ (protein, UniProt O14920 1-756)
chain: T2 sequence

- binding [2]: binds
- binding [3]: binds
B2: Hsp60c mutant, K28 substituted with glutamate, HA-tagged (domain or fragment, UniProt P10809 27-573)
chain: AEDVKFGADARALMLQGVDLLADAVAVTMGPKGRTVIIEQSWGSPKVTKDGVTVAKSIDLKDKYKNIGAKLVQDVANNTNEEAGDGTTTATVLARSIAKEGFEKISKGANPVEIRRGVMLAVDAVIAELKKQSKPVTTPEEIAQVATISANGDKEIGNIISDAMKKVGRKGVITVKDGKTLNDELEIIEGMKFDRGYISPYFINTSKGQKCEFQDAYVLLSEKKISSIQSIVPALEIANAHRKPLVIIAEDVDGEALSTLVLNRLKVGLQVVAVKAPGFGDNRKNQLKDMAIATGGAVFGEEGLTLNLEDVQPHDLGKVGEVIVTKDDAMLLKGKGDKAQIEKRIQEIIEQLDVTTSEYEKEKLNERLAKLSDGVAVLKVGGTSDVEVNEKKDRVTDALNATRAAVEEGIVLGGGCALLRCIPALDSLTPANEDQKIGIEIIKRTLKIPAMTIAKNAGVEGSLIVEKIMQSSSEVGYDAMAGDFVNMVEKGIIDPTKVVRTALLDAAGVASLLTTAEVVVTEIPKEEKDPGMGAMGGMGGGMGGGMF

- binding [4]: no binding
B3: Hsp60c, cytosol-targeted version of Hsp60 lacking the mitochondrial targeting sequence, HA-tagged, P10809 27-573 (domain or fragment)
chain: B2 chain with E2K

- binding [2]: binds
- binding [3]: binds
B4: Hsp60c mutant, D423 substituted with alanine, HA-tagged (domain or fragment, UniProt P10809 27-573)
chain: B2 chain with E2K, D397A
